Results published in PubChem BioAssay AID1745853 (National Center for Advancing Translational Sciences (NCATS), 2022).
“And” between values parts separate entries of the source, which are not always exact repeats. Equal values may be shown once. Some of the results follow. Further columns of the screen follow, without active or inactive calls.

Columns and labels:
Experiment in all cases: Primary Screen for Target Class Profiling of Small Molecule Inhibitors of Methyltransferases
[1] = biological target: Glycine N-methyltransferase (Homo sapiens) (UniProt Q14749); conditions: purified enzyme, MTase-Glo SAH luminescence; measured here: GNMT inhibition; at 40 µM; stronger effect = lower value
Procedure, shortened: (§1)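 Each enzyme was assayed with SAM and its substrate. SAH formation detected by MTase-Glo luminescence; single-point 40 uM screen[…].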

[2] = biological target: Guanidinoacetate N-methyltransferase (Homo sapiens) (UniProt Q14353); conditions: purified enzyme, MTase-Glo SAH luminescence; measured here: GAMT inhibition; at 40 µM; stronger effect = lower value
Procedure, shortened: as §1

[3] = biological target: Histamine N-methyltransferase (Homo sapiens) (UniProt P50135); conditions: purified enzyme, MTase-Glo SAH luminescence; measured here: HNMT inhibition; at 40 µM; stronger effect = lower value
Procedure, shortened: as §1

[4] = biological target: Nicotinamide N-methyltransferase (Homo sapiens) (UniProt P40261); conditions: purified enzyme, MTase-Glo SAH luminescence; measured here: NNMT inhibition; at 40 µM; stronger effect = lower value
Procedure, shortened: as §1

[5] = biological target: Phenylethanolamine N-methyltransferase (Homo sapiens) (UniProt P11086); conditions: purified enzyme, MTase-Glo SAH luminescence; measured here: PNMT inhibition; at 40 µM; stronger effect = lower value
Procedure, shortened: as §1
% is scaled to controls: 0 for no effect and ±100 for the full control effect.

Question: Which results are given for `CNC(=O)Oc1ccc2c(c1)[C@]1(C)CCN(C)[C@@H]1N2C`?
Answer: activity change, negative = inhibition [1]: 3.71% and 5.88%; activity change, negative = inhibition [2]: 1.07% and 10.6%; activity change, negative = inhibition [3]: 5.56% and 12.9%; activity change, negative = inhibition [4]: -12.5% and -8.1%; activity change, negative = inhibition [5]: 4.82% and -2.63%

Question: With `CCOc1ccc(CN2C(=O)c3cc(C(=O)OC)nn3CC2(C)C(=O)NC2CCCCC2)cc1` (stereo not given) as the compound, how does the activity change, negative = inhibition [1] read?
Answer: The activity change, negative = inhibition was -0.204%.

Question: What about the activity change, negative = inhibition [2] of the same compound?
Answer: Its activity change, negative = inhibition is 0%.

Question: What about the activity change, negative = inhibition [3] of the same compound?
Answer: Its activity change, negative = inhibition is 3.02%.

Question: And the activity change, negative = inhibition [4]?
Answer: The activity change, negative = inhibition was 4.56%.

Question: What about the activity change, negative = inhibition [5] of the same compound?
Answer: The activity change, negative = inhibition was -0.835%.

Question: How did the activity change, negative = inhibition [1] turn out when `CC[C@H]1CN(Cc2ccc(OC)cc2O)CC[C@H]1CC(=O)N1CCOCC1` was run?
Answer: The activity change, negative = inhibition was -0.011%.

Question: What about the activity change, negative = inhibition [2] of the same compound?
Answer: The activity change, negative = inhibition was 1.52%.

Question: What about the activity change, negative = inhibition [3] of the same compound?
Answer: Its activity change, negative = inhibition is -4.11%.

Question: What about the activity change, negative = inhibition [4] of the same compound?
Answer: Its activity change, negative = inhibition is -2.33%.

Question: And the activity change, negative = inhibition [5]?
Answer: Its activity change, negative = inhibition is 0.259%.

Question: What does the source list for `CC(=O)OCC1(O)CCC2C(COC3OC(CO)C(O)C(O)C3OC(=O)/C=C/c3ccc(O)cc3)=COC(OC(=O)CC(C)C)C21` (stereo not given)?
Answer: activity change, negative = inhibition [1]: 0%; activity change, negative = inhibition [2]: 1.87%; activity change, negative = inhibition [3]: 6.36%; activity change, negative = inhibition [4]: -10.7%; activity change, negative = inhibition [5]: 4.66%

Question: For `CC(C)OCCCn1c(=O)c2ccccc2n2c(SCC(=O)Nc3ccc(F)cc3F)nnc12`, which activity change, negative = inhibition [1] is on record?
Answer: Its activity change, negative = inhibition is -1.5%.

Question: And the activity change, negative = inhibition [2]?
Answer: Its activity change, negative = inhibition is 0%.

Question: And the activity change, negative = inhibition [3]?
Answer: The activity change, negative = inhibition was 2.96%.

Question: And the activity change, negative = inhibition [4]?
Answer: Its activity change, negative = inhibition is -6.34%.

Question: What about the activity change, negative = inhibition [5] of the same compound?
Answer: Its activity change, negative = inhibition is 1.68%.

Question: Which activity change, negative = inhibition [1] does the source give for `COc1ccc(-c2cc(=O)oc3cc(OCC(=O)Nc4ccc5c(c4)OCO5)ccc23)cc1` here?
Answer: Its activity change, negative = inhibition is -3.58%.

Question: What about the activity change, negative = inhibition [2] of the same compound?
Answer: Its activity change, negative = inhibition is 0%.

Question: And the activity change, negative = inhibition [3]?
Answer: The activity change, negative = inhibition was 4.06%.

Question: And the activity change, negative = inhibition [4]?
Answer: Its activity change, negative = inhibition is -0.648%.

Question: And the activity change, negative = inhibition [5]?
Answer: The activity change, negative = inhibition was -1.36%.

Question: What does the source list for `CCOc1ccccc1CN1CCC2(CCN(C(=O)c3ccccc3C)CC2)Oc2ccccc21`?
Answer: activity change, negative = inhibition [1]: -6.3%; activity change, negative = inhibition [2]: -7%; activity change, negative = inhibition [3]: -4.62%; activity change, negative = inhibition [4]: -20.6%; activity change, negative = inhibition [5]: -11%

Question: What does the source list for `CC1CCN(S(=O)(=O)c2ccc3c(ccn3CC(=O)NC3CCCC3)c2)CC1`?
Answer: activity change, negative = inhibition [1]: 2.52%; activity change, negative = inhibition [2]: 4.67%; activity change, negative = inhibition [3]: 6.52%; activity change, negative = inhibition [4]: -0.587%; activity change, negative = inhibition [5]: 2.18%

Question: How did the activity change, negative = inhibition [1] turn out when `CCCNC(=O)N1Cc2c(sc3c2CCCC3)-n2cccc2C1c1ccc(Cl)cc1` (stereo not given) was run?
Answer: Its activity change, negative = inhibition is 1.33%.

Question: And the activity change, negative = inhibition [2]?
Answer: Its activity change, negative = inhibition is 0%.

Question: And the activity change, negative = inhibition [3]?
Answer: Its activity change, negative = inhibition is 4.61%.

Question: And the activity change, negative = inhibition [4]?
Answer: Its activity change, negative = inhibition is 1.06%.

Question: And the activity change, negative = inhibition [5]?
Answer: Its activity change, negative = inhibition is 3.56%.

Question: How did the activity change, negative = inhibition [1] turn out when `C[C@@H](NC(=O)C(=O)c1c[nH]c2ccc([N+](=O)[O-])cc12)c1ccccc1` was run?
Answer: The activity change, negative = inhibition was 2.29%.

Question: And the activity change, negative = inhibition [2]?
Answer: The activity change, negative = inhibition was -4.92%.

Question: What about the activity change, negative = inhibition [3] of the same compound?
Answer: Its activity change, negative = inhibition is 2.59%.

Question: And the activity change, negative = inhibition [4]?
Answer: Its activity change, negative = inhibition is -16.7%.

Question: And the activity change, negative = inhibition [5]?
Answer: Its activity change, negative = inhibition is -2.88%.

Question: What does the source list for `Cc1ccccc1CN1CC(=O)N(Cc2ccccc2)c2ccccc2S1(=O)=O`?
Answer: activity change, negative = inhibition [1]: 1.4%; activity change, negative = inhibition [2]: 7.1%; activity change, negative = inhibition [3]: -3.89%; activity change, negative = inhibition [4]: -3.59%; activity change, negative = inhibition [5]: -2.54%

Question: What does the source list for `CSCC(=O)N[C@H]1CCN2C(=O)c3cc(-c4ccc(Cl)cc4)ccc3NC(=O)[C@H]12`?
Answer: activity change, negative = inhibition [1]: -14.7%; activity change, negative = inhibition [2]: -30.2%; activity change, negative = inhibition [3]: -11.2%; activity change, negative = inhibition [4]: -16.7%; activity change, negative = inhibition [5]: -16%

Question: `CCN1C(=O)c2cc(C(=O)NCCN3CCCCC3)nn2CC1(C)C(=O)NC1CCCC1` (stereo not given) was tested. Which activity change, negative = inhibition [1] did it give?
Answer: Its activity change, negative = inhibition is 9.01%.

Question: What about the activity change, negative = inhibition [2] of the same compound?
Answer: The activity change, negative = inhibition was 2.73%.

Question: And the activity change, negative = inhibition [3]?
Answer: The activity change, negative = inhibition was 8.05%.

Question: What about the activity change, negative = inhibition [4] of the same compound?
Answer: Its activity change, negative = inhibition is 10.1%.

Question: And the activity change, negative = inhibition [5]?
Answer: The activity change, negative = inhibition was 6.07%.

Question: Which activity change, negative = inhibition [1] does the source give for `Cc1ccc(CNC(=O)N2CCCC3(CCC(=O)N(CC4CC4)C3)C2)cc1` (stereo not given) here?
Answer: Its activity change, negative = inhibition is -0.731%.

Question: What about the activity change, negative = inhibition [2] of the same compound?
Answer: The activity change, negative = inhibition was -3.5%.

Question: And the activity change, negative = inhibition [3]?
Answer: Its activity change, negative = inhibition is -0.229%.

Question: What about the activity change, negative = inhibition [4] of the same compound?
Answer: Its activity change, negative = inhibition is -4.16%.

Question: What about the activity change, negative = inhibition [5] of the same compound?
Answer: Its activity change, negative = inhibition is -3.72%.

Question: For `Cc1cccc(Cn2nc3n(CC(C)C)c(=O)c4ccc(C(=O)NCC(C)C)cc4n3c2=O)c1`, which activity change, negative = inhibition [1] is on record?
Answer: The activity change, negative = inhibition was 2.84%.

Question: What about the activity change, negative = inhibition [2] of the same compound?
Answer: Its activity change, negative = inhibition is 0.519%.

Question: What about the activity change, negative = inhibition [3] of the same compound?
Answer: Its activity change, negative = inhibition is 1.06%.

Question: What about the activity change, negative = inhibition [4] of the same compound?
Answer: Its activity change, negative = inhibition is -2.66%.

Question: And the activity change, negative = inhibition [5]?
Answer: The activity change, negative = inhibition was 2.9%.

Question: What does the source list for `CCc1cccc(N2C(=O)c3cc(-c4ccc(OC)cc4)nn3CC2(C)C(=O)NCc2ccccc2)c1` (stereo not given)?
Answer: activity change, negative = inhibition [1]: 4.75%; activity change, negative = inhibition [2]: 0.438%; activity change, negative = inhibition [3]: 11.2%; activity change, negative = inhibition [4]: 11.8%; activity change, negative = inhibition [5]: 3.15%
